According to the supplement of paper PMC10126150:
Sequences with one replicate were seen in a single cluster, so their values are uncertain.

Tested on: ATP
Experiment: switch fluorescence ratio, 500 uM ATP over buffer (Cy3 cluster intensity, sum of 5 cycles each) (fold (ratio)); higher = stronger signal-on switching upon ATP binding; sequences stand for … in TCGTCGGCAGCGTCAGATGTGTATAAGAGACAGTTTTTTTTTTTTTTTTTTTTTTTTT…TC
Conditions: aptamer strand: ATP DNA aptamer (quencher-CACCTGGGGGAGTATTGCGGAGGAAGG + anchor), 100 nM annealed; ATP concentration: 500 uM; one replicate
Outline: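 Cy3-labelled switching-strand clusters on a modified Illumina MiSeq flow-cell were annealed to 100 nM quencher-labelled ATP aptamer and imaged first in selection buffer, then after 15 min with 500 uM ATP at 22 °C. NaOH stripping and re-annealing separated each of five buffer/ATP cycles, and clusters outside 100-1000 RFU were excluded. The fluorescence ratio sums target-cycle Cy3 intensity over buffer-cycle Cy3 intensity per cluster and averages it per switch-domain sequence.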
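Note: ATP exposure 15 min at 22 °C before imaging.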

Row | Sequence | switch fluorescence ratio
1 | CGTTAACCTC | 1.05
2 | GGATCTCAT | 0.954
3 | TCTCTGGTCA | 1.01
4 | AAAGCGATTA | 1.04
5 | GTCGGAAGAT | 1.04
6 | ACGCTAGTGG | 1.03
7 | GCTAATGGTA | 1.01
8 | TTAACATTAT | 1.01
9 | GGATGACTGT | 0.984
10 | GGAGCGTGTA | 0.995
11 | TATGCGAGGC | 1.07
12 | AAATACAATG | 0.995
13 | CCCTTTCACG | 1.07
14 | TACTTGCAAT | 3.02
15 | GTTTAACGAC | 0.993
16 | GCTAGGGACC | 1.05
17 | GAAGGTTCGG | 0.983
18 | ATCTGGATCT | 0.982
19 | AAATACATCC | 1.02
20 | AATTAGGACG | 1
21 | ATCTCGGTCT | 0.999
22 | ATGTCAACTC | 1
23 | TCAGATTAAC | 1
24 | AACAGGCCCA | 1.04
25 | TGTGGCCGTG | 0.976
26 | TGGGTCTTCC | 1.16

Row | Sequence | switch fluorescence ratio
27 | TTGACCAGGC | 1.06
28 | ATGTCGAACG | 1.01
29 | CTTAGAGCTC | 0.992
30 | TAAAGGGGTA | 1.01
31 | ACCAGTCGGC | 0.961
32 | TAAGGACCCC | 1.06
33 | ATAGTCATTA | 1.07
34 | CAGTTGTAAC | 1.03
35 | CGGGGCAGTG | 0.982
36 | CGGGGCGCAG | 0.957
37 | CGTAACCAGT | 0.996
38 | GTCACTCTGT | 1
39 | TAGGGTTACT | 1.01
40 | ACGCGGGTGT | 1.05
41 | AGGCCGCGAC | 1.24
42 | AGGGATAAAC | 1.03
43 | CTTGCACTAG | 1.15
44 | TTTCCTGGCA | 1.13
45 | CAAAGATCTG | 1.02
46 | TGCTGATTAA | 1.03
47 | TTTGGTAAGG | 0.971
48 | GCGTGGTGGA | 1.03
49 | GTCGAGTTAG | 1.01
50 | ATAGCGGCTA | 0.992
51 | TAAGGGTCTC | 0.99
52 | GGTCCGGATT | 1.02

Row | Sequence | switch fluorescence ratio
53 | CGATTAGCAG | 1.05
54 | TTGTCTGTTT | 0.989
55 | CCCAAAGATT | 0.969
56 | TCCCGACGAT | 1.47
57 | TATTCGTGTT | 2.42
58 | AACTGGGATC | 1.05
59 | CGGCACGGGC | 0.983
60 | GCGTAAACTG | 1.05
61 | CCACGAGGTC | 1.07
62 | GCTCTACTAA | 1.06
63 | TTATAATTAA | 1
64 | AAGTTCGCGG | 1.01
65 | GAGTTAGAAT | 0.993
66 | CTAATTTATA | 1
67 | GTGGGTTTCG | 0.979
68 | TGAGCGTTAC | 2.35
69 | TATATTGAGA | 0.988
70 | TTTAATGAGA | 1.03
71 | CGTCGCGCTC | 1.23
72 | GCCCGTTTGC | 1.03
73 | AGCACCTGCG | 0.96
74 | GGCTGGTTA | 1.04
75 | TTAGCTGCGC | 0.928
76 | CGGGCATATC | 2.28
77 | AGTGCCAGCT | 0.963
